# Screen size: about 270,000 compounds; about 5,800 (2.1%) were called active. Inconclusive means that the source gave no clear call. Such entries were picked first, then a sample of the others. Calls come from the whole dose curve; as a rule, active = well fitted inhibition curve with a large enough effect; inconclusive = small, poorly fitted or top-dose-only effect; inactive = flat fitted curve, though single readings scatter. Potencies beside an inconclusive call are fits to weak or partial responses and may not hold up.
# Biological target: Microtubule-associated protein tau (Homo sapiens) (UniProt P10636)
# Experiment: qHTS for Inhibitors of Tau Fibril Formation, Thioflavin T Binding; note: nearly all actives have a fitted effect of over 55% in size
# Conditions: recombinant tau K18 P301L (four-repeat tau fragment), heparin-induced fibrillization, ThT fluorescence; series mostly up to 57.4 µM; activity, negative = inhibition: at the top concentration
# How it was run: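 Tau K18 P301L fragment (15 uM unlabeled plus 0.24 uM Alexa 594-labeled) in 100 mM sodium acetate pH 7 with compound, fibrillization induced by 20 uM heparin for 6 hr at 37 C. Thioflavin T (30 uM) added, fluorescence read after 1 hr (ex 450, em 510 nm).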
# % is set by controls: 0 for no effect and ±100 for the full control effect; potency is the fitted concentration of half-maximal effect; tags give direction and shape of the fitted curve.
# Sequence of UniProt P10636 (P10636 whole entry, looked up): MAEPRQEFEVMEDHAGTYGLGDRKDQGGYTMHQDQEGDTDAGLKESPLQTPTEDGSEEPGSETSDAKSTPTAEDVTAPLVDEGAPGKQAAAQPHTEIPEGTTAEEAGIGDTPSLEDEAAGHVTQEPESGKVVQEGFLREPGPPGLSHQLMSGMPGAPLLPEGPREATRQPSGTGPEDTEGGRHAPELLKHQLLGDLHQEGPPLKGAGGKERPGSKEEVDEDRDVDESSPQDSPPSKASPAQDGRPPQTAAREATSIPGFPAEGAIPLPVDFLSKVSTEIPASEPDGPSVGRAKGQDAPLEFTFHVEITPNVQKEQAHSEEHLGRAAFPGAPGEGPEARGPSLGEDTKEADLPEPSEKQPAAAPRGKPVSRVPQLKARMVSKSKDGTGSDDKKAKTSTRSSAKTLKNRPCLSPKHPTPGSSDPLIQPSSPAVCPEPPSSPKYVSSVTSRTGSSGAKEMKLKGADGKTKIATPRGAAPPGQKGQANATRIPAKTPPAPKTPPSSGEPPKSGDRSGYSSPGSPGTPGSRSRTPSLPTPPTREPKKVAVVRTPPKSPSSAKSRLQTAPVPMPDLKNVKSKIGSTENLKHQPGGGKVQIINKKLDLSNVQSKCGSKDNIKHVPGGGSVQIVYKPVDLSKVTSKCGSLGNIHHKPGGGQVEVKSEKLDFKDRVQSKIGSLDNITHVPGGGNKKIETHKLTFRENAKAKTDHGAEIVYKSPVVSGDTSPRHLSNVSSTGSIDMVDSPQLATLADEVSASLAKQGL
SMILES,"activity, negative = inhibition",Potency
CCn1cc(C2=NC(CCSC)CO2)c2ccccc21 (centres undefined),inactive: -6.4%,
CC(=C/c1ccco1)/C=N/N1CCN(c2ccccc2)CC1,,active: 14.1 µM
Cn1c(COc2ccc3ccccc3c2)nnc1SCC(=O)OC1CCCCC1,,"inconclusive: 31.6 µM [inhibitor, single point]"
O=C/C(=C\Nc1ccccn1)c1nc2ccccc2o1,,"inconclusive: 17.8 µM [inhibitor, partial curve]"
CCCn1nc(NC(=O)c2cccs2)c2cc3cccc(C)c3nc21,,"inconclusive: 15.8 µM [inhibitor, partial curve]"
COc1cc(NC(=O)c2nc3ccccc3nc2C)cc(OC)c1OC,,"inconclusive: 14.1 µM [inhibitor, partial curve]"
C/C(=N\Nc1ccc(C#N)cc1[N+](=O)[O-])c1ccc(C)o1,,"inconclusive: 0.631 µM [inhibitor, partial curve, poor fit]"
Cn1nc(C(F)(F)F)c(-c2ccccc2)c1NC(=O)CCC(=O)O,inactive: 3.49%,
COC(=O)c1ccc(CSc2nc3ccccc3c(=O)n2-c2ccccc2)o1,,"inconclusive: 28.2 µM [inhibitor, partial curve]"
C[C@@H]1CC=C[C@H]2[C@H]1C(=O)N(Cc1ccccc1)[C@H]2c1cccc([N+](=O)[O-])c1,,"inconclusive: 14.1 µM [inhibitor, partial curve]"
Cc1ccc(NCC(=O)N/N=C/c2ccc(OC(=O)c3ccco3)cc2)cc1,,"inconclusive: 15.8 µM [inhibitor, partial curve]"
COC(=O)N(/C=C/c1ccc(OC)cc1)CCc1ccc(OC)c(OC)c1,,"inconclusive: 3.55 µM [inhibitor, single point]"
CCOc1ccc(Cn2c(O)cc(=O)[nH]c2=O)cc1,,active: 15.8 µM
Cc1ccc2sc(N(CCCN(C)C)C(=O)CN3C(=O)c4ccccc4C3=O)nc2c1C,,"inconclusive: 28.2 µM [inhibitor, single point]"
CC(=O)c1sc(Nc2ccc(C)cc2)nc1C,inactive: -4.88%,
O=C(CSc1nc2cc(Cl)ccc2s1)N1CCN(C(=O)c2ccco2)CC1,inactive: -21.2%,
Cc1ccc(C2CC(c3cccs3)=NN2C(=O)CSC2=NN3CCCC(=O)N=C3S2)cc1 (centres undefined),,"inconclusive: 31.6 µM [inhibitor, single point]"
Cc1ccc(C(=O)CN2C(=O)C(=O)N(Cc3ccccc3)C2=O)cc1,,"inconclusive: 0.0562 µM [activator, full curve, poor fit]"
O=C(CCS(=O)(=O)c1cc2c(cc1Cl)NC(=O)CO2)NCCc1ccc(Cl)cc1,,"inconclusive: 17.8 µM [inhibitor, partial curve, poor fit]"
Cc1ccc(C(=O)CC(=O)COc2ccc(Cl)cc2C)cc1,,"inconclusive: 15.8 µM [inhibitor, partial curve]"
CC/C(=N\NC(=O)C(N)=O)c1ccccc1O,,"inconclusive: 10 µM [inhibitor, partial curve]"
O=C(NC(=S)Nc1ccc(S(=O)(=O)N2CCCCC2)cc1)c1ccc(Cl)cc1,inactive: -3.76%,

SMILES,"activity, negative = inhibition",Potency
COc1cccc(CN2CCNC(=O)C2CC(=O)NCc2cn3ccc(C)cc3n2)c1OC (centres undefined),inactive: 1.54%,
Cc1nc(C/C(=N\N)c2ccc(O)cc2O)cs1,,"inconclusive: 31.6 µM [inhibitor, single point]"
CCCc1nn2c(=O)cc(COc3ccc(/C=C(\C#N)C(=O)Nc4ccc(F)cc4)cc3)nc2s1,,"inconclusive: 1.58 µM [inhibitor, full curve]"
Cc1ncoc1C(=O)N1CCc2c([nH]c3ccccc23)C1c1ccccc1F (centres undefined),,"inconclusive: 1.78 µM [inhibitor, full curve, poor fit]"
N=c1sccn1CC(=O)N1N=C(c2ccc(Cl)cc2)CC1c1ccco1 (centres undefined),,"inconclusive: 11.2 µM [inhibitor, partial curve]"
CC(=O)c1ccc(NC(=O)c2cnsn2)cc1,,"inconclusive: 7.94 µM [inhibitor, partial curve]"
COc1ccc2[nH]cc(C(=O)CNc3nc(C)cs3)c2c1,,"inconclusive: 20 µM [inhibitor, partial curve]"
COc1cccc([C@@H]2Oc3ccc(Br)cc3C(=O)[C@H]2OC(=O)N[C@H](C)C2CCCCC2)c1,inactive: -6.09%,
Cn1c(=NC(=O)c2ccco2)sc2cccc(F)c21,,"inconclusive: 4.47 µM [inhibitor, partial curve, poor fit]"
COc1cc(/C=N/NC(=S)Nc2cccc(C(=O)O)c2)cc(OC)c1OC,,"inconclusive: 12.6 µM [inhibitor, partial curve]"
O=C1CC(c2nc(-c3cccc(Cl)c3)no2)CN1c1ccc2c(c1)OCCO2 (centres undefined),,"inconclusive: 44.7 µM [inhibitor, single point]"
COc1ccc(COc2cc(-c3cccc(OC)c3)nc3ccc(NC(=O)c4ccccc4)cc23)cc1,,"inconclusive: 39.8 µM [inhibitor, partial curve]"
CC(C)c1ccc2c(c1)C1(NN=C(c3ccccc3)S1)C(=O)N2 (centres undefined),,active: 25.1 µM
CC(=O)c1c(NC(=O)c2ccccc2)[nH]c(-c2ccccc2)nc1=S,,"inconclusive: 22.4 µM [inhibitor, single point]"
CCOC(=O)c1c(-c2ccc(C)o2)csc1N,,"inconclusive: 17.8 µM [inhibitor, partial curve]"
COc1ccc(/C=N/n2cncn2)cc1Cn1nc(C)c([N+](=O)[O-])c1C,inactive: -7.88%,
O=C(NCCc1csc(-c2cccc(F)c2)n1)c1ccc(Br)o1,,"inconclusive: 31.6 µM [inhibitor, single point]"
CCSc1nc2sc3c(c2c(=O)n1C1CCCCC1)CCN(C)C3,inactive: -17.3%,
CC(C)OCCCNC(=O)CN1C(=O)CSc2ccc(S(=O)(=O)N3CCCCC3)cc21,inactive: 15.7%,
COc1cccc(CNC(=O)C2CCCN(c3ncnc4onc(-c5ccc(F)cc5)c34)C2)c1 (centres undefined),inactive: -10.2%,
Cc1ccc(-c2ccc(S(=O)(=O)NCc3ccco3)cc2)cc1,inactive: -12.9%,
COc1cc(-c2ccc(N=Nc3ccc4c(S(=O)(=O)O)cc(S(=O)(=O)O)c(N)c4c3O)c(OC)c2)ccc1N=Nc1ccc2c(S(=O)(=O)O)cc(S(=O)(=O)O)c(N)c2c1O,,active: 1.58 µM

# — PubChem BioAssay AID1460 (National Center for Advancing Translational Sciences (NCATS), 2008)
